# The list shows a part of the results. Sequences were assembled here from the parent chain. Values near 0.05 are background.
# B1: TEV protease; numbered along this chain (parent)
# chain: MGESLFKGPRDYNPISSSICHLTNESDGHTTSLYGIGFGPFIITNKHLFRRNNGTLVVQSLHGVFKVKDTTTLQQHLVDGRDMIIIRMPKDFPPFPQKLKFREPQREERICLVTTNFQTKSMSSMVSDTSCTFPSGDGIFWKHWIQTKDGQCGSPLVSTRDGFIVGIHSASNFTNTNNYFTSVPKNFMELLTNQEAQQWVSGWRLNADSVLWGGHKVFMVKPEEPFQPVKEATQL
# Variants of: B1
# Assay: raw area under fraction-flipped curve 0-4 h after induction (AUC4h, not background-subtracted), DNA-recorder readout of cleavage of the substrate (dimensionless); higher = more cleavage of the substrate by the protease variant
# Conditions: temperature: 34 °C; time window: 0-4 h after rhamnose induction
# 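Further: Bxb1 expression induced with 0.2% (w/v) L-rhamnose at OD600 near 0.5, cultures sampled hourly, flipped fraction per protease–substrate barcode pair counted by paired-end Illumina sequencing.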
Variant,area with substrate CNLYFQS,area with substrate DNLYFQS,area with substrate FNLYFQS,area with substrate GNLYFQS,area with substrate HNLYFQS,area with substrate KNLYFQS,area with substrate NNLYFQS,area with substrate PNLYFQS,area with substrate SNLYFQS,area with substrate TNLYFQS,area with substrate VNLYFQS,area with substrate WNLYFQS,area with substrate LNLYFQS,area with substrate MNLYFQS,area with substrate RNLYFQS,area with substrate YNLYFQS,area with substrate INLYFQS
MGESLFKGPRDYNPISSSICHLTNESDGHTTSLYGIGFGPFIITNKHLFRRNNGTLVVQSLHGVFKVKDTTTLQQHLVDGRDMIIIRMPKDFPPFPQKLKFREPQREERICLVTTNFQTKSMSSMVSDTSCTFPSGDGIFWKHWIQTKDGQCGSPLVSTRDGFIVGIHSASNFTNTNNYFTSVPKNFMELLTNQEAQQWVSGWRLNADSVLWGGHKVFMVVPEEPFQPVKEATQL [K221V],0.0633,0.0572,0.0642,0.0612,0.0621,0.045,0.0726,0.0656,0.0626,0.0599,0.0563,0.0562,,,,,
MGESLFKGPRDYNPISSSICHLTNESDGHTTSLYGIGFGPFIITNKHLFRRNNGTLVVQSLHGVFKVKDTTTLQQHLVDGRDMIIIRMPKDFPPFPQKLKFREPQREERICLVTTNFQTKSMSSMVSDTSCTFPSGDGIFWKHWIQTKDGQCGSPLVSTRDGFIVGIHSASNFTNTNNYFTSVPKNFMELLTNQEAQQWVSGWRLNADSVLWGGHKVFMVKPEEAFQPVKEATQL [P225A],0.0527,0.0852,,0.0627,0.0578,,,0.0678,0.0673,0.0643,0.0524,0.0687,0.0686,0.0504,0.0594,0.0693,
MGESLFKGPRDYNPISSSICHLTNESDGHTTSLYGIGFGPFIITNKHLFRRNNGTLVVQSLHGVFKVKDTTTLQQHLVDGRDMIIIRMPKDFPPFPQKLKFREPQREERICLVTTNFQTKSMSSMVSDTSCTFPSGDGIFWKHWIQTKDGQCGSPLVSTRDGFIVGIHSASNFTNTNNYFTSVPKNFMELLTNQEAQQWVSGWRLNADSVLWGGHKVFYVKPEEPFQPVKEATQL [M219Y],0.0718,0.103,,,,0.0677,0.0649,,0.0678,0.0691,,0.0561,,,,,
MGESLFKGPRDYNPISSSICHLTNESDGHTTSLYGIGFGPFIITNKHLFRRNNGTLVVQSLHGVFKVKDTTTLQQHLVDGRDMIIIRMPKDFPPFPQKLKFREPQREERICLVTTNFQTKSMSSMVSDTSCTFPSGDGIFWKHWIQTKDGQCGSPLVSTRDGFIVGIHSASNFTNTNNYFTSVPKNFMELLTNQEAQQWVSGWRLNADSVLWGGHKVFIVKPEEPFQPVKEATQL [M219I],0.0644,0.0893,0.0391,0.009,0.0633,0.0641,0.0534,0.0555,0.0663,0.0649,,,0.0677,0.0543,,0.0546,0.0555
MGESLFKGPRDYNPISSSICHLTNESDGHTTSLYGIGFGPFIITNKHLFRRNNGTLVVQSLHGVFKVKDTTTLQQHLVDGRDMIIIRMPKDFPPFPQKLKFREPQREERICLVTTNFQTKSMSSMVSDTSCTFPSGDGIFWKHWIQTKDGQCGSPLVSTRDGFIVGIHSASNFTNTNNYFTSVPKNFMELLTNQEAQQWVSGWRLNADSVLWGGHKVFMVKEEEPFQPVKEATQL [P222E],0.0768,0.0653,,0.0541,0.0636,0.0668,,0.0755,,0.0589,0.0592,,0.0579,0.06,,,0.0547
MGESLFKGPRDYNPISSSICHLTNESDGHTTSLYGIGFGPFIITNKHLFRRNNGTLVVQSLHGVFKVKDTTTLQQHLVDGRDMIIIRMPKDFPPFPQKLKFREPQREERICLVTTNFQTKSMSSMVSDTSCTFPSGDGIFWKHWIQTKDGQCGSPLVSTRDGFIVGIHSASNFTNTNNYFTSVPKNFMELLTNQEAQQWVSGWRLNADSVLWGGHKVFMNKPEEPFQPVKEATQL [V220N],0.0654,0.0696,0.0488,,0.0593,0.0773,0.0579,0.0779,,0.0787,0.0803,,,0.0666,,0.0663,0.0554
MGESLFKGPRDYNPISSSICHLTNESDGHTTSLYGIGFGPFIITNKHLFRRNNGTLVVQSLHGVFKVKDTTTLQQHLVDGRDMIIIRMPKDFPPFPQKLKFREPQREERICLVTTNFQTKSMSSMVSDTSCTFPSGDGIFWKHWIQTKDGQCGSPLVSTRDGFIVGIHSASNFTNTNNYFTSVPKNFMELLTNQEAQQWVSGWRLNADSVLWGGHKVFMDKPEEPFQPVKEATQL [V220D],0.0687,0.0704,0.0692,0.0736,0.07,0.0556,,0.0566,0.0573,0.0693,0.0776,,0.0471,0.0722,,,0.0791
MGESLFKGPRDYNPISSSICHLTNESDGHTTSLYGIGFGPFIITNKHLFRRNNGTLVVQSLHGVFKVKDTTTLQQHLVDGRDMIIIRMPKDFPPFPQKLKFREPQREERICLVTTNFQTKSMSSMVSDTSCTFPSGDGIFWKHWIQTKDGQCGSPLVSTRDGFIVGIHSASNFTNTNNYFTSVPKNFMELLTNQEAQQWVSGWRLNADSVLWGGHKVFMCKPEEPFQPVKEATQL [V220C],0.0702,0.0569,0.0489,,0.0683,0.0656,0.0654,0.0692,,0.0634,0.0681,0.0563,0.072,0.0714,,0.0483,
MGESLFKGPRDYNPISSSICHLTNESDGHTTSLYGIGFGPFIITNKHLFRRNNGTLVVQSLHGVFKVKDTTTLQQHLVDGRDMIIIRMPKDFPPFPQKLKFREPQREERICLVTTNFQTKSMSSMVSDTSCTFPSGDGIFWKHWIQTKDGQCGSPLVSTRDGFIVGIHSASNFTNTNNYFTSVPKNFMELLTNQEAQQWVSGWRLNADSVLWGGHKVFMVKPHEPFQPVKEATQL [E223H],0.0781,0.0861,0.0694,0.0813,0.0507,0.0661,0.0815,,,0.0574,0.0717,,0.0594,0.067,,,
MGESLFKGPRDYNPISSSICHLTNESDGHTTSLYGIGFGPFIITNKHLFRRNNGTLVVQSLHGVFKVKDTTTLQQHLVDGRDMIIIRMPKDFPPFPQKLKFREPQREERICLVTTNFQTKSMSSMVSDTSCTFPSGDGIFWKHWIQTKDGQCGSPLVSTRDGFIVGIHSASNFTNTNNYFTSVPKNFMELLTNQEAQQWVSGWRLNADSVLWGGHKVFMVKPMEPFQPVKEATQL [E223M],0.0554,0.0906,0.0562,,0.0532,0.0458,,,0.0717,0.0463,0.0618,,0.0753,0.071,,,

# From the supplement of paper PMC12217912
